Consider 21 variants from the RNAGym collection of RNA variant scans (doi:10.7554/elife.90254).

The source gives no read counts; variants with many changes may rest on few reads.

Sequences and labels used below:
B1: OR4K15 (parent)
chain: GUUAACGGUCAUAGGCCAUGGAAACUAGGAGCACCAUUUCGCUGCCAGUGAAGAAAUGAACAAAGAAAAUCUGGGCCAGGCAGGCAUCAAAAGAAAUAGUCUUGCGCUCAACCAGAAAGUCUGUAAUCAUUUUAAGGGUA

In this data set the parent is B1. Description: self-cleavage, relative activity (ratio to wild type); higher = more cleavage; in vitro, sequencing; the parent is a self-cleaving ribozyme.
As for GUUAACGGUCGUAGGCCAUGGAAACUAGGAGCACCAUUUCGCUGCCAGUGAAGAAAUGAACGAAGAAGAUCUGGGCCAGGCAGGCAUCAAAAGAGAUAGUCUUGCGCUCAACCAGAAAGUCUGUAAUCAUCUUAAGGGUA [A11G A62G A68G A95G U131C], the self-cleavage worked out at 1.37.

In the case of GUUAACGGUCGUAGGCCAUGGAAACUAGGAGCACCAUUUCGCUGCCAGUGAAGAAAUGAACGAAGAAAAUCUGGGCCAGGCAGGCAUCGAAAGAAAUAGUCUUGCGCUCAACCAGAAAGUCUGUAAUCAUUUUAAGGGUA [A11G A62G A89G], the self-cleavage came to 1.05.

On to GUUAACGGUCGUAGGCCAUGGAAACUAGGAGCACCAUUUCGCUGCCAGUGAAGAAGUGAACAAAGAAAAUCUGGGCCAGGCAGGCAACAAAAGAAACAGUCUUGCGCUCAACCAGGAAGUCUGUAAUCAUUUUAAGGGUA [A11G A56G U87A U97C A116G], for which the self-cleavage turned out to be 0.44.

Consider GUUAACGGUCGUAGGCCAUGGAAACUAGGAGCACCAUUUCGCUGCCAGUGAAGAAAUGAACAAAGGAAAUCUGGGCCAGGCAGGCAUCAAAAGAAAUAGUCUCGCGCUCAACCAGAAAGUCUGUAAUCAUUUUAAAGGUA [A11G A66G U103C G136A], for which the self-cleavage amounted to 0.78.

Consider GUUAACGGUCGUAGGCCAUGGAAACUAGGAGCACCAUUUCGCUGCCAGUGAAGAAAUGGACAAAGAAAAUCUGGGCCAGGCAGGCAUCAAAGGAAAUAGUCUUGCGCUCAACCAGAAAGUCUGUAAUCAUUUUAAGGGUA [A11G A59G A92G], for which the self-cleavage is 2.27.

In the case of GUUAACGGUCGUAGGCCAUGGAAACUAGGAGCACCAUUUCGCUGCCAGUGAAGAAAUGAACAGAGAGAGUCUGGGCCAGGCAGGCAUCAAAAGAAAUAGUCUUGCGCUCAACCAGAAAGUCUGUAAUCAUUUUAAGGGUG [A11G A63G A67G A69G A140G], the self-cleavage is 0.58.

Take GUUAACGGUCGUAGGCCAUGGAAACUAGGAGCACCAUUUCGCUGCCAGUGAAGAAAUGGACAAAGAAAAUCAGGGCCAGGCAGGCAUCAAAAGAAAUAGUCUUGCGCACAACCAGAAAGUCUGUAAUCAUCUUAAGGGUA [A11G A59G U72A U108A U131C]: the self-cleavage is 0.01.

Take GUUAACGGUCGUAGGCCAUGGAAACUAGGAGCACCAUUUCGCUGCCAGUGAAGAAAUGAACAACGAAAAUCUGGGCCAGGCAGGCAUCAAAAGAAAUAGUCUUGCGCUCAACCAGAAAGUCUGUAACCAUUUUAAGGGUA [A11G A64C U127C]: the self-cleavage is 1.42.

As for GUUAACGGUCGUAGGCCAUGGAAACUAGGAGCACCAUUUCGCUGCCAGUGAAGAAAUGAGCAUAGAAAAUCUGGGCCGGGCAGGCAUCAAAAGAAAUAGUCUUGCGCUCAACCAGAAAGUCUGUAAUCAUUUUAAGGGUA [A11G A60G A63U A78G], the self-cleavage came to 0.22.

On to GUUAACGGUCGUAGGCCAUGGAAACUAGGAGCACCAUUUCGCUGCCAGUGAAGAACUGGACAAGGAAAAUCUGGGCCAGGCAGGCAUCAAAAGAACUAGUCUUGCGCUCAACCAGAAAGUCUGUAAUCAUUUUAAGGGUA [A11G A56C A59G A64G A96C], for which the self-cleavage stood at 0.38.

GUUAACGGUCGUAGGCCAUGGAAACUAGGAGCACCAUUUCGCUGCCAGUGAAGAAAUGAACAAAGGAAAUCUGGGCCAGGCAGGCAUCAAAAGAAAUAGUCUUGCGCUCAACCAGAAAGUCUGUAAUCAUUUUAAGGGUG [A11G A66G A140G]: the self-cleavage came out at 1.6.

GUUAACGGUCGUAGGCCAUGGAAACUAGGAGCACCAUUUCGCUGCCAGUGAAGAAAUGAACAGAGAAAAUCUGGGCCGGGCAGGCAUCAAAAGAAAUAGUCUUGCGCUCAACCAGAAAGUCUGUAGUCAUUUUAAGGGUA [A11G A63G A78G A126G]: the self-cleavage was 0.13.

With GUUAACGGUCGUAGGCCAUGGAAACUAGGAGCACCAUUUCGCUGCCAGUGAAGAAAUGAACGAAGAAAAUCUGGGCCAGGCAGGCAUCAAAAGAAGUAGUCUUGCGCUCAACCGGAAAGUCUGUAAUCAUUUUAAGGGUA [A11G A62G A96G A114G], the self-cleavage is 0.17.

With GUUAACGGUCGUAGGCCAUGGAAACUAGGAGCACCAUUUCGCUGCCAGUGAAGAAAUGGACAAAGAAAAUCUGGGCCAGGCAGGCAUCAAAAGAAAUAGUCAUGCGCUCAACCAGAAAGUCUGUAAUCAUCUUAAGGGUA [A11G A59G U102A U131C], the self-cleavage was 0.54.

For GUUAACGGUCGUAGGCCAUGGAAACUAGGAGCACCAUUUCGCUGCCAGUGAAGAAAUGAACUAAGAAAAUCUGGGCCAGGCAGGCAUCAAAAGAAAAAGUCUUGCGCUCAACCAGAAAGUCUGUAAUCAUUUUAAGGGUA [A11G A62U U97A], the self-cleavage came to 0.73.

For the variant GUUAACGGUCGUAGGCCAUGGAAACUAGGAGCACCAUUUCGCUGCCAGUGAAGAAAUGAACAGAGAAAAUCUGGGCCAGGCAGGCAUCAAAAGAAAUAGUCUUGCGCCCAACCAGAAAGUCUGUAAUCAUUUUAAGGGUA [A11G A63G U108C], the self-cleavage worked out at 0.01.

For the variant GUUAACGGUCGUAGGCCAUGGAAACUAGGAGCACCAUUUCGCUGCCAGUGAAGAAAUGGACAAAGAAAAUCUGGGCCAGGCAGGCAUCGAAAGAAAUAGUCUUGCGCUCAACCAGAAAGUCUGUAAUCAUUUUAAGGGUA [A11G A59G A89G], the self-cleavage worked out at 0.73.

Regarding GUUAACGGUCGUAGGCCAUGGAAACUAGGAGCACCAUUUCGCUGCCAGUGAAGAAGUGUACAAAGAAGAUCUGGGCCAGGCAGGCGUCAAAUGAAGAAGUCUUGCGCUCAACCAGAAAGUCUGUAAUCAUUUUAAGGGUA [A11G A56G A59U A68G A86G A92U A96G U97A], the self-cleavage was 1.34.

As for GUUAACGGUCGUAGGCCAUGGAAACUAGGAGCACCAUUUCGCUGCCAGUGAAGAAAUGAACAUAGAGGAUCUGGGCCAGGCAGGCAUCAAAAGAAAUAGUCUUGCGCUCAACCAGAAAGUCUGUAAUCAUUUUAAGGGUA [A11G A63U A67G A68G], the self-cleavage turned out to be 2.09.

With GUUAACGGUCGUAGGCCAUGGAAACUAGGAGCACCAUUUCGCUGCCAGUGAAGAAAUGAUCAAAGAAAAUCUGGGCCAGGCAGGCAUCAAAAGAAAUAGUCUUGCGCCCAACCAGAAAGUCUGUAAUCAUUCUAAGGGUA [A11G A60U U108C U132C], the self-cleavage turned out to be 0.

For the variant GUUAACGGUCGUAGGCCAUGGAAACUAGGAGCACCAUUUCGCUGCCAGUGAAGAAAUGAACGAAGAAAAUCUGGGCCAGGCAGGCGUCAAAAGAAAUAGUCUUGCGCUCAACCAGAAAGUCUGUAAUCAUUUUAAGGGUA [A11G A62G A86G], the self-cleavage amounted to 0.95.
